Measurements published in the supplement of paper PMC10126150.
Sequences with one replicate were seen in a single cluster, so their values are uncertain.

tested on: ATP; test: switch fluorescence ratio, 500 uM ATP over buffer (Cy3 cluster intensity, sum of 5 cycles each) (fold (ratio)); higher = stronger signal-on switching upon ATP binding; sequences stand for … in TCGTCGGCAGCGTCAGATGTGTATAAGAGACAGTTTTTTTTTTTTTTTTTTTTTTTTT…TC; conditions: aptamer strand: ATP DNA aptamer (quencher-CACCTGGGGGAGTATTGCGGAGGAAGG + anchor), 100 nM annealed; ATP concentration: 500 uM; one replicate
Summary of the method: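 Cy3-labelled switching-strand clusters on a modified Illumina MiSeq flow-cell were annealed to 100 nM quencher-labelled ATP aptamer, imaged in selection buffer, then imaged after 15 min with 500 uM ATP at 22 °C. Five buffer/ATP cycles ran, with NaOH stripping and re-annealing between them. The fluorescence ratio is summed target-cycle over summed buffer-cycle Cy3 intensity per cluster, averaged per switch-domain sequence. Clusters outside 100-1000 RFU were excluded.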
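Further: ATP exposure 15 min at 22 °C before imaging.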

Row | Sequence | switch fluorescence ratio
1 | AATTGAATTT | 1.01
2 | TCATCTATTT | 0.982
3 | GCCTGCAATC | 4.43
4 | TCATAGGAGG | 0.963
5 | AGCTATGACA | 0.995
6 | CACCCCGGAA | 2.08
7 | ATTCTCAGGG | 1.05
8 | ATTTCTTTCG | 1.02
9 | ATCTGACATA | 1.04
10 | AATTCTGGGG | 1
11 | TCAAGGGAG | 1.01
12 | GCCAAGTTCT | 0.95
13 | CATGGTTGAC | 1
14 | TTATCGGCTC | 0.932
15 | GTAAACAAGA | 0.957
16 | TAAAGCAGTG | 1.06
17 | ACCTTTCAAT | 1.06
18 | CACACGGAA | 1.23
19 | CCTGGTCCTC | 1.04
20 | ATACACCGAG | 1.08
21 | CGGACAATTA | 1.15
22 | CACCACGTAG | 1.04
23 | GGAGTGACTA | 1.02

Row | Sequence | switch fluorescence ratio
24 | GGCCAGGGTT | 1.04
25 | CGACAAGGGT | 1.13
26 | GTGAAGTAGT | 1.02
27 | TAGCATGCCG | 0.866
28 | AATACTGTTT | 1.03
29 | CTAATACATG | 1
30 | CCTCCATTCA | 1.81
31 | GAGAAGCCTG | 0.905
32 | TGGGACTC | 0.989
33 | GCAACTAAT | 2
34 | CCCCAAGTTA | 1.06
35 | ACTGCATAG | 0.978
36 | ACGTATCAGC | 1.11
37 | TTAGATTTTC | 0.997
38 | ATTTTATACG | 1.06
39 | TGTGTATGAA | 1.01
40 | ATCCAGTGCT | 1.05
41 | TCTGCTGCGG | 0.995
42 | CGTAATAGCA | 1.05
43 | AGCGGATCAA | 0.993
44 | CACTGATGGT | 1
45 | TTAGGCGTTG | 0.978
46 | AAGGGTGACA | 1.04

Row | Sequence | switch fluorescence ratio
47 | AAAAGAAGGG | 1.04
48 | ATATCGATG | 0.981
49 | TAAGAACAA | 1.15
50 | TGTAGTAAGC | 1.16
51 | ACTGTTACTT | 1.22
52 | CATACAAGAA | 0.986
53 | CTGCGGTCCA | 1.03
54 | CGTAGAGCG | 1.06
55 | GACATACGGG | 1.22
56 | TCTTGTTACG | 0.928
57 | GGACGCCCTA | 1.06
58 | GCAGGGTTTG | 1
59 | GATTTATGGC | 1.01
60 | CTCAGGGGCA | 1.04
61 | ATTCTGTCGA | 1.05
62 | CAGTTCATGG | 0.976
63 | TGACTCATTC | 1.08
64 | GGCGTTCAAT | 1.01
65 | ACTGGAGTTG | 1
66 | TATCAAAACG | 1.04
67 | TTTAGTAAAG | 0.977
68 | ATATATCACC | 1.07
69 | TGTACGAGGA | 1

Row | Sequence | switch fluorescence ratio
70 | GGAGGGACAC | 1
71 | TTAGGAAATA | 1
72 | CCGTGACGAT | 1.12
73 | TAAAACCTTT | 1.13
74 | AGTGATTTTT | 1.19
75 | CTTGCACGCT | 0.978
76 | GACGTTCTG | 1.04
77 | CGACCGTGGT | 1.03
78 | TGGTTATTTA | 1.01
79 | GGATCTTACG | 0.99
80 | TGAAACGGAT | 1.01
81 | TATGATGCCC | 1.01
82 | GATCCTTAAC | 1.05
83 | TCAGGAACTT | 1.05
84 | TTGTCGTTTC | 1.05
85 | AGTATACGA | 1.01
86 | GGAGTAACGC | 1.08
87 | AGCATCGCAC | 1.02
88 | CCCCCTGAGC | 1.15
89 | AATATGGCCC | 1.12
90 | CAGAGTGTAT | 1.02
91 | AGACCTGAGG | 1.02
92 | GTAATCCAGT | 1.02

Row | Sequence | switch fluorescence ratio
93 | ATTTTTGCA | 1.01
94 | TGGGTCGAC | 1.03
95 | TATGTTAAGA | 1
96 | CCCTCGGAGG | 1.02
97 | GATTTAAGGC | 0.94
98 | GGGAATGTAC | 1.11
99 | CATACCGTTA | 1.06
100 | GTTATCTCCT | 1.06
101 | AAAAACTAGG | 1.01
102 | TAATCTCGTG | 0.945
103 | GTAATCGAA | 0.97
104 | GTTGAGCGAT | 1.05
105 | TTTAGAAATT | 0.981
106 | TGCGCGTACG | 0.992
107 | ATAAATGGCC | 0.976
108 | AAAAACCCCG | 1.11
109 | GGAGGTGGGG | 1
110 | GTGGACTGAG | 0.945
111 | TTAGTAATTA | 0.995
112 | GAGTCTATAG | 1.02
113 | TTGCGTATAA | 1.06
114 | CGCTCCAATA | 2.21
115 | GGCTCAGCTC | 0.99

Row | Sequence | switch fluorescence ratio
116 | GTCGAGGCAG | 1.03
117 | GACTCGGAAA | 1.42
118 | TCTCTGCCCT | 1.07
119 | GGGCAATTCG | 1.13
120 | CATGGTGTGA | 1.02
121 | CACGTGAGAA | 0.983
122 | AGTTCTAATC | 1.02
123 | ACACAGCCCG | 1.04
124 | GTTTGTGATC | 0.975
125 | CACTGCAACT | 1.69
126 | GTTCAAACAC | 0.995
127 | CGTAGGGG | 0.992
128 | CAGGATGAGG | 0.975
129 | CTCACAACAT | 1.07
130 | TTTGTCCTAT | 1.03
131 | GTACGAATC | 1.04
132 | GGGATTAGTA | 1.02
133 | CGGCAAAGCC | 1
134 | CGCTGTGAAC | 1.09
135 | GCAGTCGCAT | 0.959
136 | CGATAGCACT | 1.3
137 | TCGCGCGAGA | 0.995
138 | AGTATTGTTA | 0.961

Row | Sequence | switch fluorescence ratio
139 | TATGCGTGTT | 0.971
140 | CTGTCCAATT | 1.03
141 | ACGATAAGAG | 1.12
142 | CAGCCCCGGA | 0.965
143 | TTGAGAAAAA | 0.988
144 | CATAACAACG | 1.02
145 | GGCAAGTTT | 1.03
146 | AATTTTGCTC | 0.997
147 | CGTGAACGAC | 0.984
148 | ATATTGTGCC | 0.969
149 | GGGGTCCCGG | 0.996
150 | GGAGAACGTG | 1.03
151 | ACGGTCTAAG | 1
152 | AGCCATTAGG | 0.91
153 | AGTGTAGGAT | 1.02
154 | AATGAGTCAC | 1
155 | CACACCCTGG | 1.27
156 | TTTTCGCGGT | 1
157 | ATCATTGCGC | 0.979
